# Results from PubChem BioAssay AID686979 (National Center for Advancing Translational Sciences (NCATS), 2013).
# Among all 420,000 compounds or so, about 50,000 (12%) were called active. Inconclusive results, whose numbers are uncertain, are shown with a selection of clear calls. Calls come from the whole dose curve; as a rule, active = well fitted inhibition curve with a large enough effect; inconclusive = small, poorly fitted or top-dose-only effect; inactive = flat fitted curve, though single readings scatter. Potencies of inconclusive entries are left out as doubtful fits.
# Test: qHTS for Inhibitors of human tyrosyl-DNA phosphodiesterase 1 (TDP1): qHTS in cells in presence of CPT; note: nearly all actives have a fitted effect of over 55% in size
# Settings: chicken DT40 Tdp1-/-;hTDP1 cells + 20 nM CPT, ATP luminescence, 48 h; activity change, negative = growth inhibition: at 46.2 µM (top of the series)
# Summary of the method: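 Chicken DT40 Tdp1-/- cells stably complemented with human TDP1 were seeded at 400 cells/well in medium containing 20 nM camptothecin, exposed to pin-transferred compounds, and grown at 37 °C for at least 48 hr. Viability was read as ATP luminescence.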
# % is set by controls: 0 for no effect and ±100 for the full control effect; potency is the fitted concentration of half-maximal effect; tags give direction and shape of the fitted curve.
SMILES,Potency,"activity change, negative = growth inhibition"
COc1ccc(/C=C/c2nc3cc(-c4ccccc4)ccc3o2)cc1O,active: 9.2 µM,–
CC(C)c1ccc(C=NNc2ccc([N+](=O)[O-])cn2)cc1,"inconclusive [inhibitor, single point]",–
CSc1ccc(S(=O)(=O)Nc2ccc3c4c(cccc24)CC3)cc1,"inconclusive [inhibitor, partial curve]",–
Cc1c(NC(=O)CN2CCN(c3cccc(Cl)c3)CC2)c(=O)n(-c2ccccc2)n1C,"inconclusive [inhibitor, partial curve]",–
CCCCSCCCNC(=O)C1CCN(Cc2nc(-c3cccc(Br)c3)oc2C)CC1,"inconclusive [inhibitor, single point]",–
COc1ccccc1CNC(=O)c1ccc(N2CCCC2)c(NC(=O)NCc2ccc(F)cc2)c1,"inconclusive [inhibitor, partial curve]",–
CCCCN(CC)Cc1ccc(CNC(=S)Nc2cccc(F)c2)o1,"inconclusive [inhibitor, single point]",–
Cc1csc(N(C(=O)Cc2ccccc2F)c2ccccc2)n1,"inconclusive [inhibitor, single point]",–
O=C(NCCC1=CCCCC1)c1ccc2c(c1)N(Cc1cccc(Cl)c1)C(=O)c1ccccc1S2(=O)=O,"inconclusive [inhibitor, single point]",–
CC1CCCCC1NC(=O)COC(=O)c1ccc2ncsc2c1 (centres undefined),–,inactive: 10.4%
Cc1ccc2nc(/C(C#N)=C\c3ccc(Oc4ccc(C(F)(F)F)cc4[N+](=O)[O-])cc3)[nH]c2c1,"inconclusive [inhibitor, partial curve]",–
COc1ccc(NC(=O)c2cccc(OC(=S)N3CCOCC3)c2)cc1,"inconclusive [inhibitor, single point]",–
O=C1C(Nc2ccccc2)=CC(=O)c2ncccc21,active: 1 µM,–
c1ccc(OCCNc2nc(NCC3CC3)nc3ccsc23)cc1,active: 4.61 µM,–
N#C/C(=C(/O)COC(=O)c1cccnc1Cl)c1nc2ccccc2[nH]1,active: 18.4 µM,–
CCCc1cc(=O)[nH]c(SCC(=O)c2c(N)n(C3CC3)c(=O)[nH]c2=O)n1,"inconclusive [inhibitor, single point]",–
CCCCCn1c(N2CCN(Cc3ccccc3)CC2)nc2c1c(=O)[nH]c(=O)n2C,"inconclusive [inhibitor, full curve]",–
O=C(CCCCn1c(=S)[nH]c2ccsc2c1=O)NCc1ccc2c(c1)OCO2,"inconclusive [inhibitor, single point]",–
CCOc1ccc(S(=O)(=O)c2cn(Cc3ccc(OC)cc3)c3ccc(F)cc3c2=O)cc1,"inconclusive [inhibitor, partial curve, poor fit]",–
Cc1nn(-c2ccc(N3CCCC3)nn2)c(C)c1CCC(=O)NCc1ccc(OC(C)C)cc1,"inconclusive [inhibitor, single point]",–
O=c1c(-c2cccc(Cl)c2)nc2cncnc2n1Cc1ccccc1,"inconclusive [inhibitor, single point]",–
COCC(C)NC(=O)c1cc(S(=O)(=O)N2CCCCC2)ccc1N1CCOCC1 (centres undefined),–,inactive: 4.95%

SMILES,Potency,"activity change, negative = growth inhibition"
CCOc1ccc(C(=O)N2CCN(CCc3ccccn3)CC2)cc1,–,inactive: -1.49%
Cc1cc(N2CCN(S(=O)(=O)c3ccc4c(c3)OCCO4)CC2)n2ncnc2n1,"inconclusive [inhibitor, partial curve, poor fit]",–
CCOc1cc(C2Nc3ccccc3NC3=C2C(=O)CC(C)(C)C3)ccc1OC(C)=O (centres undefined),–,inactive: -25.8%
CCOc1ccc(NC(=O)Cn2c(=O)cc(C)c3c(C)nn(-c4cccc(Cl)c4C)c32)cc1,active: 25.9 µM,–
O=C(NCCCN1CCc2ccccc2C1)Nc1ccc(Cl)cc1,active: 16.4 µM,–
O=C(COC(=O)CSc1ccc([N+](=O)[O-])cc1)NCc1ccco1,–,inactive: -7.39%
COC(=O)c1cc2ccsc2n1Cc1nc(-c2ccc(Cl)cc2)oc1C,"inconclusive [inhibitor, single point]",–
Cc1ccc(S(=O)(=O)N2CCCC(C(=O)NC3CCCC3)C2)cc1 (centres undefined),–,inactive: -13.7%
CCOC(=O)C1=C(C)N=C2c3ccccc3C(=O)C2C1c1ccc(Cl)cc1 (centres undefined),"inconclusive [inhibitor, single point]",–
Cc1[nH]c2ccc(C(=O)OCC(=O)Nc3cccc(S(N)(=O)=O)c3)cc2c1C,"inconclusive [inhibitor, single point]",–
Cc1cc(Br)ccc1NC(=O)CN(C)C(=O)c1cccc(S(=O)(=O)N2CCN(C)CC2)c1,–,inactive: -29.5%
CC1CCCC(C)N1C(=O)c1cc(-c2ccc(Cl)c(Cl)c2)on1 (centres undefined),active: 18.4 µM,–
Cn1c(SCC(=O)N2CCN(c3ccccc3)CC2)nnc1-c1c[nH]c2ccccc12,"inconclusive [inhibitor, single point]",–
Cc1nn(C)c(Cl)c1CN1CCC(CO)(CCOc2ccccc2)CC1,–,inactive: -20.2%
O=C(c1noc2c1CCCC2)N1CCN(Cc2ccccc2)CC1,"inconclusive [inhibitor, single point]",–
COc1ccc(S(=O)(=O)N2CCOCC2)cc1C(=O)N(C)CCOc1ccc(Cl)cc1,"inconclusive [inhibitor, single point]",–
COc1ccc(C(=O)Cn2c(Br)nc3c2c(=O)n(C)c(=O)n3C)cc1OC,"inconclusive [inhibitor, partial curve]",–
CN1CCN(c2cc(N3CCc4ccccc4C3)c(F)cc2[N+](=O)[O-])CC1,active: 16.4 µM,–
O=C(O)c1ccc2c(c1)S(=O)(=O)c1cc(N3CCN(c4ncccn4)CC3)ccc1C2=O,–,inactive: 4.98%
COc1cccc(CN(C)C(=O)CNC(=O)c2ccc(-c3ccccc3)cc2)c1OC,"inconclusive [inhibitor, single point]",–
CCOc1ccc(Nc2nc(C)c(NC(=O)c3cccc(OC)c3)c(Nc3ccc(OCC)cc3)n2)cc1,active: 1.46 µM,–
Cc1ccccc1CSc1nc2cccnc2n1Cc1ccc(C(=O)NC2CC2)cc1,"inconclusive [inhibitor, single point]",–
